From paper PMC8313811 (Current Research in Structural Biology, 2021)
Where “and” joins values, the source holds several entries; their conditions need not be identical. Equal values may be shown once.

Biological target: the molecule itself
Experiment: cryo-EM structure

B1: M. tuberculosis full-length EspB2-460 (natural protein)
chain: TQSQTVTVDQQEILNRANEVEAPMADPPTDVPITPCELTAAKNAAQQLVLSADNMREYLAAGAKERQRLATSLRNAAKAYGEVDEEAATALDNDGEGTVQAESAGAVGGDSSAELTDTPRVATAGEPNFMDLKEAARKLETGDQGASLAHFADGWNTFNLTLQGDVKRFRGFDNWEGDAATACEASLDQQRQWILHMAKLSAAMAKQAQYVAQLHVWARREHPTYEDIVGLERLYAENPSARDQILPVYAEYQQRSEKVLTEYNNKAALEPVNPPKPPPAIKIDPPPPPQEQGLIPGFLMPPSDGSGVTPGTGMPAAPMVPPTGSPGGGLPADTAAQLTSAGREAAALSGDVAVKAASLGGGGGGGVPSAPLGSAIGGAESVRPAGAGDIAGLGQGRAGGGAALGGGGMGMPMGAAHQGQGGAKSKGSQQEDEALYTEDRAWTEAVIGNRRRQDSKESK
- stoichiometry N: 6 and 7 and 8
